Out of some 48,000 compounds screened, about 550 (1.1%) were called active. Roughly 4% stayed inconclusive and do not appear here. Cut-off read from the data, not from the text of the source: active = potency below about 15 µM; inconclusive = mostly about 16 µM to 33 µM; inactive = weaker than that. The list shows a part of the results.
Each molecule was assayed against Lysosomal acid glucosylceramidase (Homo sapiens) (UniProt P04062) (assay: Glucocerebrosidase). Details: purified enzyme, resorufin glucoside fluorescence (screen aimed at inhibitors), 20 min; series mostly up to 77 µM.
Chain of UniProt P04062 (P04062 whole entry, looked up): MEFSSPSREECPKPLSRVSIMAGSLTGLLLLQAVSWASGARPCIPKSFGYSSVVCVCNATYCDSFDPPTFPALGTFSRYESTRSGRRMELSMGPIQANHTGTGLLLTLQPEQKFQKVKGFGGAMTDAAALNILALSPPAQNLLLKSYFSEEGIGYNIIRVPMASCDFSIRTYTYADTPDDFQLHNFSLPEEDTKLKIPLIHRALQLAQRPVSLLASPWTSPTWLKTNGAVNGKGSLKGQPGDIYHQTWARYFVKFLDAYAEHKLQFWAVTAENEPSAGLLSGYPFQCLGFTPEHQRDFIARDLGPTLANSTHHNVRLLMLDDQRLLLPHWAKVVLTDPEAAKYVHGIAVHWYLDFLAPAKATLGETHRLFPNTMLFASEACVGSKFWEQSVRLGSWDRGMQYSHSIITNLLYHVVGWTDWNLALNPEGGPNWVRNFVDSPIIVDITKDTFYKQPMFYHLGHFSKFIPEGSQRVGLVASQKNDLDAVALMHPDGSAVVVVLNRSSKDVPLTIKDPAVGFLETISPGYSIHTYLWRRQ
How it was run: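 Wild-type enzyme at 0.2 nM final in 50mM citric acid/KH2PO4, 10mM sodium taurocholate, 0.01% tween-20, pH 5.9, with resorufin beta-D-glucopyranoside at 30 uM final. Compounds titrated, 20 min at RT, red fluorescence read; AC50 from titration.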
In the case of `Cc1[nH]nc2c1C1(CCOCC1)C(C#N)=C(N)O2`, the Potency is reported as inactive: > 76.9 µM.
With `COc1ccc(C2C(C(=O)c3cc4cccc(OC)c4o3)=C(O)C(=O)N2CCCN(C)C)cc1OC` (centres undefined) the Potency was inactive: > 76.9 µM.
With `Cn1c(=O)n(CCc2ccccc2)c(=O)c2c1nc1n2CCCN1c1ccc(F)cc1` the Potency was inactive: > 76.9 µM.
In the case of `CCCNC(=O)CN(c1ccc(F)c(Cl)c1)S(C)(=O)=O`, the Potency is reported as inactive: > 76.9 µM.
`CCN(C(=O)Cn1c(=O)n2nc(CCn3nc(C)cc3C)nc2c2ccccc21)c1cccc(C)c1` was tested, and the Potency was inactive: > 76.9 µM.
With `CCOc1ccc2nc(SCC(=O)c3cccs3)sc2c1` the Potency was inactive: > 76.9 µM.
In the case of `COc1ccc(C(CC(=O)Nc2nccs2)n2cccc2)cc1` (centres undefined), the Potency is reported as inactive: > 76.9 µM.
`NC(=O)c1c(N)sc2c1CCCCC2` was tested, and the Potency was inactive: > 76.9 µM.
For `O=C(OCC(=O)N1CCN(C(=O)c2ccco2)CC1)C1=COCCO1`, the Potency was inactive: > 76.9 µM.
With `CCc1cc(=O)oc2cc(C)cc(OC(C)C(=O)O)c12` (centres undefined) the Potency was inactive: > 76.9 µM.
With `Cc1ccc(-c2nnc(CSc3nc4cc5c(cc4cc3C)OCO5)o2)cc1` the Potency was inactive: > 76.9 µM.
In the case of `CCOc1cccc(-c2nnc3sc(-c4cc(OC)c(OC)cc4OC)nn23)c1`, the Potency is reported as inactive: > 76.9 µM.
`CC(=O)c1c(C)[nH]c(C(=O)N2CCc3ccccc3C2)c1C` was tested, and the Potency was inactive: > 76.9 µM.
For `Cc1cc2cc(CNC(=O)NC3CCCCC3)ccc2[nH]1`, the Potency was inactive: > 76.9 µM.
In the case of `Cn1c(N2CCCC2)nc2c1c(=O)n(Cc1ccc(F)cc1)c(=O)n2C`, the Potency is reported as inactive: > 76.9 µM.
In the case of `Cn1ncc(Cl)c1C(=O)Nc1cccnc1`, the Potency is reported as inactive: > 76.9 µM.
In the case of `CCOC(=O)c1c(C)n(CCO)c2ccc(O)cc12`, the Potency is reported as inactive: > 76.9 µM.
With `O=S1(=O)N=C(Nc2ccc(N3CCOCC3)cc2)c2ccccc21` the Potency was inactive: > 76.9 µM.
For `CCC(C)(C)NC(=O)C(c1ccc(C)o1)N(Cc1cccs1)C(=O)Cn1nnc2ccccc21` (centres undefined), the Potency was inactive: > 76.9 µM.
`CC1CCCCC1NC(=O)CN(C)S(=O)(=O)c1cccc2nsnc12` (centres undefined) was tested, and the Potency was inactive: > 76.9 µM.
With `O=C(NCc1cccnc1)c1c[nH]c2cc3c(cc2c1=O)OCCO3` the Potency was inactive: > 76.9 µM.
`C=CCNc1nc2c(c(=O)n(C)c(=O)n2C)n1CCCCCC` was tested, and the Potency was inactive: > 76.9 µM.
In the case of `CCOC(=O)CSc1nc2ccccc2n1CC(=O)N1CCN(c2ccccc2)CC1`, the Potency is reported as inactive: > 76.9 µM.
In the case of `Cc1nn(CC(O)Cn2cnc3c2c(=O)n(C)c(=O)n3C)c(C)c1Br` (centres undefined), the Potency is reported as inactive: > 76.9 µM.
`CCN(CC)S(=O)(=O)c1ccc(Oc2cccc(C(C)=O)c2)nc1` was tested, and the Potency was inactive: > 76.9 µM.
With `COc1ccc(-n2c(=O)[nH]cc(C(=O)N3CCCc4ccccc43)c2=O)cc1` the Potency was inactive: > 76.9 µM.
With `O=C(CN1C(=O)COc2ccccc21)Nc1ccc2c(c1)OCCO2` the Potency was inactive: > 76.9 µM.
`c1ccc(CN2CCC3(CC2)Nc2ccccc2CO3)cc1` was tested, and the Potency was inactive: > 76.9 µM.
`O=C(NC1c2ccccc2-c2ccccc21)c1ccco1` was tested, and the Potency was inactive: > 76.9 µM.
For `CC(C)c1c(O)nc(SCCN(C)C)[nH]c1=O`, the Potency was inactive: > 76.9 µM.
For `CC(NC(=O)c1cccnc1)C(=O)N1CCCCC1` (centres undefined), the Potency was inactive: > 76.9 µM.
In the case of `CCOC(=O)c1oc2ccc(S(=O)(=O)N3CCOCC3)cc2c1C`, the Potency is reported as inactive: > 76.9 µM.
For `COc1ccc(CCNC(=O)CSc2nnc(CNC(=O)c3ccco3)o2)cc1OC`, the Potency was inactive: > 76.9 µM.
`O=C(CSc1ncn(-c2ccccc2)n1)c1cccs1` was tested, and the Potency was inactive: > 76.9 µM.
In the case of `Cc1cc(C)nc(Nc2nc3ccccc3[nH]2)n1`, the Potency is reported as inactive: > 76.9 µM.
For `Cc1cc(=O)oc2cc(Oc3ncccn3)ccc12`, the Potency was inactive: > 76.9 µM.
`COCCn1c(SCC(=O)Nc2nc(C)c(Cl)cc2Cl)nc2ccccc21` was tested, and the Potency was inactive: > 76.9 µM.
In the case of `Cn1c(=O)c2c([nH]c(=O)n2C)n(C)c1=O`, the Potency is reported as inactive: > 76.9 µM.
`Cn1ccnc1SCC(=O)Nc1cccc2ccccc12` was tested, and the Potency was inactive: > 76.9 µM.
With `CC(=O)c1c[nH]c2ccc(C)cc2c1=O` the Potency was inactive: > 76.9 µM.
`COc1ccccc1NC(=O)CSc1nnc(CNC(=O)c2ccco2)o1` was tested, and the Potency was inactive: > 76.9 µM.
With `Cc1ccc(NCc2nnc(SCC(=O)Nc3ncc(C)s3)n2CC2CCCO2)c(C)c1` (centres undefined) the Potency was inactive: > 76.9 µM.
With `Cc1nc(NC(C)C)c2oc3ccccc3c2n1` the Potency was inactive: > 76.9 µM.
In the case of `O=C(Nc1ccc(N2CCOCC2)cc1)C1CCCN(S(=O)(=O)c2ccccc2)C1` (centres undefined), the Potency is reported as inactive: > 76.9 µM.
With `O=c1n(-c2ccccc2)c(=O)n2n1CCCC2` the Potency was inactive: > 76.9 µM.
For `COc1cccc(NC(=O)N(CCCN2CCOCC2)C(C)c2cc3cccc(OC)c3o2)c1` (centres undefined), the Potency was active: 9.63 µM.
With `CCCC(=O)Nc1nc2ccc3nc(C)sc3c2s1` the Potency was inactive: > 76.9 µM.
`Cc1nc2sc3c(c2c(=O)n1/N=C/c1ccco1)CCCC3` was tested, and the Potency was inactive: > 76.9 µM.
In the case of `Cc1ccc(N2CC(C(=O)OCC(=O)C(C)(C)C)CC2=O)cc1C` (centres undefined), the Potency is reported as inactive: > 76.9 µM.
`O=C(CSc1nc2c(c(=O)n1-c1ccc(F)cc1)SCC2)N1CCCC1` was tested, and the Potency was inactive: > 76.9 µM.
With `c1ccc(CN2CCN(c3ncccn3)CC2)nc1` the Potency was inactive: > 76.9 µM.
With `CCOC(=O)C(C(=O)N1CCOCC1)C1CCCCC1` (centres undefined) the Potency was inactive: > 76.9 µM.
In the case of `Cn1c(=O)n(Cc2ccccc2)c(=O)c2c1nc1n2CCCN1C1CCCCC1`, the Potency is reported as inactive: > 76.9 µM.
`O=C(CSc1ncc(C(F)(F)F)cc1Cl)N1CCN(S(=O)(=O)c2ccccc2)CC1` was tested, and the Potency was inactive: > 76.9 µM.
`C=C(C)c1ccc(C(C)(C)NC(=O)N2CCN(C)CC2)cc1` was tested, and the Potency was inactive: > 76.9 µM.
`c1cnc(N2CCN(Cc3c[nH]c4ccccc34)CC2)nc1` was tested, and the Potency was inactive: > 76.9 µM.
For `CCC(c1nnnn1CCc1ccccc1)N(Cc1ccco1)Cc1cc2c(C)ccc(C)c2[nH]c1=O` (centres undefined), the Potency was inactive: > 76.9 µM.
With `c1ccc(NCc2nnc3n2CCCCC3)cc1` the Potency was inactive: > 76.9 µM.
`COC(=O)c1ccc(NC(=O)CCNS(=O)(=O)c2cccc3nonc23)cc1` was tested, and the Potency was inactive: > 76.9 µM.
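Note: the screen sought inhibitors.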
Potency is the fitted concentration of half-maximal effect.
